From the supplement of paper PMC8728848
This is one part of the list.

Legend:
Assay in all cases: glycan array binding signal (z-score within array); higher = stronger binding
Settings in all cases: glycan notation: IUPAC condensed, linker removed
Gal3S(b1-4)Glc = biological target: Gal3S(b1-4)Glc
In short: (§1)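 The Consortium for Functional Glycomics database supplied 3228 glycan arrays, of which those lacking an available protein sequence were dropped. The binding signal, a within-array Z-score, was averaged across arrays of the same protein sequence and across linkers. Negative scores can be read as non-binding.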

Gal3S(b1-4)Glc6S = biological target: Gal3S(b1-4)Glc6S
In short: as §1

Gal3S(b1-4)GlcNAc = biological target: Gal3S(b1-4)GlcNAc
In short: as §1

[1] = biological target: Gal3S(b1-4)[Fuc(a1-3)]Glc6S
In short: as §1

[2] = biological target: Gal3S(b1-4)[Fuc(a1-3)]GlcNAc
In short: as §1

[3] = biological target: Gal3S(b1-4)[Fuc(a1-3)]GlcNAc6S
In short: as §1

Gal3S4S(b1-4)GlcNAc = biological target: Gal3S4S(b1-4)GlcNAc
In short: as §1

Gal3S6S(b1-4)GlcNAc = biological target: Gal3S6S(b1-4)GlcNAc
In short: as §1

Gal3S6S(b1-4)GlcNAc6S = biological target: Gal3S6S(b1-4)GlcNAc6S
In short: as §1

Gal4S(b1-4)GlcNAc = biological target: Gal4S(b1-4)GlcNAc
In short: as §1

Gal4S6S(b1-4)GlcNAc = biological target: Gal4S6S(b1-4)GlcNAc
In short: as §1

Gal6P(b1-4)GlcNAc = biological target: Gal6P(b1-4)GlcNAc
In short: as §1

Gal6S(b1-3)GlcNAc = biological target: Gal6S(b1-3)GlcNAc
In short: as §1

Gal6S(b1-3)GlcNAc6S = biological target: Gal6S(b1-3)GlcNAc6S
In short: as §1

Gal6S(b1-4)Glc = biological target: Gal6S(b1-4)Glc
In short: as §1

Gal6S(b1-4)Glc6S = biological target: Gal6S(b1-4)Glc6S
In short: as §1

Gal6S(b1-4)GlcNAc = biological target: Gal6S(b1-4)GlcNAc
In short: as §1

Gal6S(b1-4)GlcNAc6S = biological target: Gal6S(b1-4)GlcNAc6S
In short: as §1

GalNAc(a1-3)Gal = biological target: GalNAc(a1-3)Gal
In short: as §1

GalNAc(a1-3)GalNAc = biological target: GalNAc(a1-3)GalNAc
In short: as §1

[4] = biological target: GalNAc(a1-3)GalNAc(b1-3)Gal(a1-4)Gal(b1-4)Glc
In short: as §1

[5] = biological target: GalNAc(a1-3)GalNAc(b1-3)Gal(a1-4)Gal(b1-4)GlcNAc
In short: as §1

GalNAc(b1-3)Gal = biological target: GalNAc(b1-3)Gal
In short: as §1

[6] = biological target: GalNAc(b1-3)Gal(a1-4)Gal(b1-4)GlcNAc
In short: as §1

[7] = biological target: GalNAc(b1-3)Gal(a1-4)Gal(b1-4)GlcNAc(b1-3)Gal(b1-4)Glc
In short: as §1

[8] = biological target: GalNAc(b1-3)Gal(a1-6)Gal(b1-4)Glc
In short: as §1

GalNAc(b1-3)GalNAc = biological target: GalNAc(b1-3)GalNAc
In short: as §1

GalNAc(b1-3)GlcNAc = biological target: GalNAc(b1-3)GlcNAc
In short: as §1

GalNAc(b1-4)Gal(b1-4)Glc = biological target: GalNAc(b1-4)Gal(b1-4)Glc
In short: as §1

GalNAc(b1-4)GlcNAc = biological target: GalNAc(b1-4)GlcNAc
In short: as §1

[9] = biological target: GalNAc(b1-4)GlcNAc(b1-2)Man
In short: as §1

[10] = biological target: GalNAc(b1-4)GlcNAc(b1-2)Man(a1-3)[GalNAc(b1-4)GlcNAc(b1-2)Man(a1-6)]Man(b1-4)GlcNAc(b1-4)GlcNAc
In short: as §1

[11] = biological target: GalNAc(b1-4)GlcNAc(b1-3)GalNAc(b1-4)GlcNAc
In short: as §1

GalNAc(b1-4)GlcNAc6S = biological target: GalNAc(b1-4)GlcNAc6S
In short: as §1

GalNAc(b1-6)GalNAc = biological target: GalNAc(b1-6)GalNAc
In short: as §1

GalNAc3S(b1-4)GlcNAc = biological target: GalNAc3S(b1-4)GlcNAc
In short: as §1

GalNAc3S(b1-4)GlcNAc3S = biological target: GalNAc3S(b1-4)GlcNAc3S
In short: as §1

[12] = biological target: GalNAc3S(b1-4)[Fuc(a1-3)]GlcNAc
In short: as §1

GalNAc4S6S(b1-4)GlcNAc = biological target: GalNAc4S6S(b1-4)GlcNAc
In short: as §1

GalNAc6S(b1-4)GlcNAc = biological target: GalNAc6S(b1-4)GlcNAc
In short: as §1

Glc(a1-4)Glc = biological target: Glc(a1-4)Glc
In short: as §1

[13] = biological target: Glc(a1-4)Glc(a1-4)Glc(a1-4)Glc
In short: as §1

Glc(a1-6)Glc(a1-6)Glc = biological target: Glc(a1-6)Glc(a1-6)Glc
In short: as §1

[14] = biological target: Glc(a1-6)Glc(a1-6)Glc(a1-6)Glc
In short: as §1

Glc(b1-4)Glc = biological target: Glc(b1-4)Glc
In short: as §1

B1: LecB PA7 (Pseudomonas aeruginosa) (protein)
chain: MATQGVFTLPANTRFGVTAFANSSATQTVKVLVNNETAATFTGQSTNNAVIGSQVLNSGGGGKVQIQVSVNGRSSDLVSAQVILANELNVALVGSEDSTDNDYNDAVVVINWPLG
Question: Which “glycan array binding signal (z-score)” value (Gal3S(b1-4)Glc) does the source give for B1 here?
Answer: -0.487

Question: And the “glycan array binding signal (z-score)” value (Gal3S(b1-4)Glc6S)?
Answer: -0.496

Question: And the “glycan array binding signal (z-score)” value (Gal3S(b1-4)GlcNAc)?
Answer: -0.497

Question: What about the “glycan array binding signal (z-score)” value [1] of the same binder?
Answer: 0.91

Question: And the “glycan array binding signal (z-score)” value [2]?
Answer: 0.828

Question: What about the “glycan array binding signal (z-score)” value [3] of the same binder?
Answer: -0.51

Question: What about the “glycan array binding signal (z-score)” value (Gal3S4S(b1-4)GlcNAc) of the same binder?
Answer: -0.504

Question: And the “glycan array binding signal (z-score)” value (Gal3S6S(b1-4)GlcNAc)?
Answer: -0.514

Question: What about the “glycan array binding signal (z-score)” value (Gal3S6S(b1-4)GlcNAc6S) of the same binder?
Answer: -0.506

Question: And the “glycan array binding signal (z-score)” value (Gal4S(b1-4)GlcNAc)?
Answer: -0.478

Question: What about the “glycan array binding signal (z-score)” value (Gal4S6S(b1-4)GlcNAc) of the same binder?
Answer: -0.51

Question: What about the “glycan array binding signal (z-score)” value (Gal6P(b1-4)GlcNAc) of the same binder?
Answer: -0.507

Question: What about the “glycan array binding signal (z-score)” value (Gal6S(b1-3)GlcNAc) of the same binder?
Answer: -0.514

Question: What about the “glycan array binding signal (z-score)” value (Gal6S(b1-3)GlcNAc6S) of the same binder?
Answer: -0.513

Question: And the “glycan array binding signal (z-score)” value (Gal6S(b1-4)Glc)?
Answer: -0.49

Question: And the “glycan array binding signal (z-score)” value (Gal6S(b1-4)Glc6S)?
Answer: -0.48

Question: What about the “glycan array binding signal (z-score)” value (Gal6S(b1-4)GlcNAc) of the same binder?
Answer: -0.501

Question: What about the “glycan array binding signal (z-score)” value (Gal6S(b1-4)GlcNAc6S) of the same binder?
Answer: -0.508

Question: What about the “glycan array binding signal (z-score)” value (GalNAc(a1-3)Gal) of the same binder?
Answer: -0.483

Question: And the “glycan array binding signal (z-score)” value (GalNAc(a1-3)GalNAc)?
Answer: -0.478

Question: And the “glycan array binding signal (z-score)” value [4]?
Answer: -0.487

Question: And the “glycan array binding signal (z-score)” value [5]?
Answer: -0.392

Question: What about the “glycan array binding signal (z-score)” value (GalNAc(b1-3)Gal) of the same binder?
Answer: -0.493

Question: What about the “glycan array binding signal (z-score)” value [6] of the same binder?
Answer: -0.503

Question: And the “glycan array binding signal (z-score)” value [7]?
Answer: -0.515

Question: And the “glycan array binding signal (z-score)” value [8]?
Answer: -0.48

Question: What about the “glycan array binding signal (z-score)” value (GalNAc(b1-3)GalNAc) of the same binder?
Answer: -0.37

Question: What about the “glycan array binding signal (z-score)” value (GalNAc(b1-3)GlcNAc) of the same binder?
Answer: -0.498

Question: And the “glycan array binding signal (z-score)” value (GalNAc(b1-4)Gal(b1-4)Glc)?
Answer: -0.462

Question: And the “glycan array binding signal (z-score)” value (GalNAc(b1-4)GlcNAc)?
Answer: -0.511

Question: What about the “glycan array binding signal (z-score)” value [9] of the same binder?
Answer: -0.496

Question: And the “glycan array binding signal (z-score)” value [10]?
Answer: -0.488

Question: What about the “glycan array binding signal (z-score)” value [11] of the same binder?
Answer: -0.263

Question: What about the “glycan array binding signal (z-score)” value (GalNAc(b1-4)GlcNAc6S) of the same binder?
Answer: -0.515

Question: What about the “glycan array binding signal (z-score)” value (GalNAc(b1-6)GalNAc) of the same binder?
Answer: -0.506

Question: And the “glycan array binding signal (z-score)” value (GalNAc3S(b1-4)GlcNAc)?
Answer: -0.508

Question: And the “glycan array binding signal (z-score)” value (GalNAc3S(b1-4)GlcNAc3S)?
Answer: -0.517

Question: What about the “glycan array binding signal (z-score)” value [12] of the same binder?
Answer: 0.903

Question: What about the “glycan array binding signal (z-score)” value (GalNAc4S6S(b1-4)GlcNAc) of the same binder?
Answer: -0.512

Question: And the “glycan array binding signal (z-score)” value (GalNAc6S(b1-4)GlcNAc)?
Answer: -0.519

Question: And the “glycan array binding signal (z-score)” value (Glc(a1-4)Glc)?
Answer: -0.499

Question: What about the “glycan array binding signal (z-score)” value [13] of the same binder?
Answer: -0.495

Question: What about the “glycan array binding signal (z-score)” value (Glc(a1-6)Glc(a1-6)Glc) of the same binder?
Answer: -0.456

Question: What about the “glycan array binding signal (z-score)” value [14] of the same binder?
Answer: -0.482

Question: What about the “glycan array binding signal (z-score)” value (Glc(b1-4)Glc) of the same binder?
Answer: -0.472
